Assay results as given in publication PMC10293653 (International Journal of Biological Macromolecules, 2023).

Tested on: Wt-SARS-CoV-2
Assay type: cell-based

Compound: N[C@@H](CC(=O)N1CCn2c(nnc2C(F)(F)F)C1)Cc1cc(F)c(F)cc1F [Sitagliptin, sitagliptin]
- effect on viral growth (0.99 μM): partially encumbered the viral growth
- inhibition of viral multiplication compared to cells with virus alone (1.98 μM): almost six folds
